In the supplement of paper PMC11417369:
Some of the results follow.

The sequences below were run on PF3D7_0420300 AP2 domain 1 (GST-tagged) (assay: gcPBM binding intensity (ln(normalized median fluorescence intensity)); higher = stronger DNA binding).
How it was run: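 In this array assay, P. falciparum DNA-binding domains with a GST tag, expressed in E. coli, were applied for 1 h to primer-extended double-stranded 36-bp intergenic genomic probes and negative controls on an Agilent 4 × 180k array. Bound protein was visualised with Alexa488 anti-GST antibody at 488 nm. Binding intensity is the highest Masliner-normalised natural-log median intensity across replicate spots of either probe orientation.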

Sequence | gcPBM binding intensity (ln)
TATACGCAGAAACACACACACAAAAAAAAAAAAAAA [CACACA_site427] | 9.71
ATTCGGATCTATAAGTGTACACAATCTAGCGAAAAG [XGTACX_site3088] | 9.15
TTTATTCAAATATAATGTACTTTCTACAAATTCAAT [XGTACX_site8119] | 8.99
CATATATAAATATATACACACATATATATATATATA [CACACA_site1365] | 9.23
ATTTTTTTTGCTAAGTGTACACAAATGTTTATTAAT [XGTACX_site7440] | 9.42
TTTATTAAGAAACACACACACACACCCAAAATAAAA [CACACA_site242] | 10
TATAAACAAAACAAAACATGCATAATACTATAAATT [TGCATGCA_site333] | 9.71
TAATTAACTTTATATGCATGTTAAAAATGTTATAAG [TGCATGCA_site761] | 8.97
CTTTATTATAAGATTACACACATGTGTTCTAATTTA [CACACA_site7479] | 9.38
AACAAAATAAAAAGTAATCTTATTTATTAAAATTTT [CACACA_negctrl_site419] | 9.09
TTTTGGTTAATTCCCCCCATTACATTATGTCATGTC [CACACA_negctrl_site229] | 9.81
TTTCATTTTTTTACATGTACGCAAAAGTGTGTAGTT [XGTACX_site6582] | 9.3
TAATACTTATATAAAGGTACACAATTTAACCGAATG [XGTACX_site7173] | 9.25
GTAAATATTCATATATGTACTTATGATATTTGCTAA [XGTACX_site6828] | 8.91
CTTCCTTAGGAATGTACACACATATAAAATATGTTG [CACACA_site6355] | 9.35
AAGAAAGAGTTCTGTTGTACAAAATATTAATATGTA [XGTACX_site7213] | 9.22
ACATATATATATATATATTGATTTATTTATTTCCCT [CACACA_negctrl_site659] | 9.18
ATATATATATATAAATGTACAAAAATATATATGTAA [XGTACX_site4531] | 9.36
CTATTTAAAATATGAACACACATTATTTGTTTTAGA [CACACA_site2713] | 9.2
ATATCATTATATAGTTGTACATATTTATTTATTTAT [XGTACX_site8995] | 9.48
AATATAGGAATATGCACACATATATACCTACATACA [CACACA_site4939] | 9.51
AAAAAAAAAAATACTAGTACGTAAAATTATATAAAT [XGTACX_site3019] | 9.47
ATTTCCCATACACGTTGTACAATGTAGAGAAAGTAT [XGTACX_site4586] | 9.08
GATATGTGTATAATATGTACATATATATATATATAT [XGTACX_site6531] | 9.3
